Measured values: PubChem BioAssay AID588591 (National Center for Advancing Translational Sciences (NCATS), 2011)
Screen size: about 390,000 compounds; about 4,700 (1.2%) were called active. The shares of active, inactive and inconclusive entries below differ from those in the screen. Calls follow the shape of the dose curve; as a rule, active = well fitted inhibition curve with a large enough effect; inconclusive = small, poorly fitted or top-dose-only effect, or another doubt; inactive = no such curve, though single readings can be large or run the other way. Potencies beside an inconclusive call are fits to weak or partial responses and may not hold up.

The compounds below were run against DNA polymerase eta (Homo sapiens) (UniProt Q9Y253) (assay: qHTS for Inhibitors of Polymerase Eta). Conditions: recombinant Pol eta, fluorescent DNA replication assay; series mostly up to 114 µM.
In short: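 Fluorescent replication assay: 50 nM final substrate added after a 15 min room-temperature compound preincubation with 10 nM enzyme. Signal taken at 0 min and again at 10 min.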
Potency is read from the fitted curve at half-maximal effect; tags tell the direction and shape of the fitted curve.

Chain of UniProt Q9Y253 (Q9Y253 whole entry, looked up): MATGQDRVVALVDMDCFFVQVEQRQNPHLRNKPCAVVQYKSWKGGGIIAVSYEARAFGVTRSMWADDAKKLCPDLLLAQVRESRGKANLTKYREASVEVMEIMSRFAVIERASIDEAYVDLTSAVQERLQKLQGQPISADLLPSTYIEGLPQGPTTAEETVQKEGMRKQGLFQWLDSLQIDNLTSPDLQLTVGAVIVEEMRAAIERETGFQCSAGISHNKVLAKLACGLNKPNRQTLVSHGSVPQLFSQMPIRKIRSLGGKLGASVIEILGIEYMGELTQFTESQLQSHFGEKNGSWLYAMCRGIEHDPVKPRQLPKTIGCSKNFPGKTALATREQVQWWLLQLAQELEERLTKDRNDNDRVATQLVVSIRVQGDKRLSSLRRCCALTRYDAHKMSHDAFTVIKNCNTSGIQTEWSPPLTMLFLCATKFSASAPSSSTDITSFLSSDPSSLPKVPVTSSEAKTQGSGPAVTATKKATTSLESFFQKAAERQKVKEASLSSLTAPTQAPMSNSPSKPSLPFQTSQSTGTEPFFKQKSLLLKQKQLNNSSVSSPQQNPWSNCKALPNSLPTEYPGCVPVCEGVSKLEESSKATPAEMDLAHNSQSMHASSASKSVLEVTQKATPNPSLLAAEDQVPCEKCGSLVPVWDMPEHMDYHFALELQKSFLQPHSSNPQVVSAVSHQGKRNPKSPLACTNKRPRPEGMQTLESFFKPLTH

| SMILES | Potency |
| --- | --- |
| Cc1cc(C)c2c(CC(=O)Nc3ccc(S(=O)(=O)N4CCCC(C)C4)cc3)coc2c1 (stereo not drawn) | inconclusive: 50.1 µM [inhibitor, partial curve, poor fit] |
| C=CCN(CC=C)CC(=O)Nn1c(C)ccc1C | active: 20 µM |
| COc1cccc(C(=O)NC2CC3CCCC(C2)N3CC(=O)Nc2ccccc2)c1 (stereo not drawn) | inconclusive: 50.1 µM [inhibitor, partial curve] |
| O=C(COC(=O)c1cccs1)NCc1ccco1 | active: 14.1 µM |
| O=C(O)c1cc(Nc2cc(Cl)c3nonc3c2[N+](=O)[O-])ccc1O | active: 25.1 µM |
| COC(=O)c1ccc(Oc2nc(C(N)=O)cc(-c3ccccc3)n2)cc1 | inconclusive: 100 µM [inhibitor, single point] |
| NC(CSC1(c2ccc(Cl)cc2)c2ccccc2-c2ccccc21)C(=O)O (stereo not drawn) | inconclusive: 15.8 µM [inhibitor, full curve, poor fit] |
| CN(C)CCNS(=O)(=O)c1ccc2c3c(cccc13)C(=O)N2 | inactive |
| COc1ccc(Cl)cc1Nc1nnc(-c2ccncc2)s1 | inconclusive: 12.6 µM [inhibitor, full curve] |
| CCOC(=O)N1CCN(C(=O)C2CCN(C(=O)c3ccccc3C)CC2)CC1 | active: 31.6 µM |
| COc1ccc(C(=O)N/C(=C/c2cccs2)c2nc3ccccc3[nH]2)cc1OC | inconclusive: 20 µM [inhibitor, single point] |
| Cc1ccc(Nc2ncnc3c2cnn3-c2ccccc2)c(C)c1 | inconclusive: 44.7 µM [inhibitor, partial curve, poor fit] |
| O=C(NCCc1c[nH]c2ccccc12)c1c(Cl)nc2sccn12 | inconclusive: 31.6 µM [inhibitor, partial curve, poor fit] |
| CCOc1cccc(-c2nn3c(-c4cc(C)[nH]n4)nnc3s2)c1 | inconclusive: 39.8 µM [inhibitor, partial curve, poor fit] |
| Nc1[nH]c(=S)nc2nc(-c3ccccc3)c(-c3ccccc3)nc12 | inconclusive: 79.4 µM [inhibitor, single point] |
| CSc1nc(NCCN(C)C)c2sc3nc(-c4ccco4)c4c(c3c2n1)CCC4 | inconclusive: 79.4 µM [inhibitor, partial curve, poor fit] |
| Cc1ccc(N=C2NC(=O)/C(=C/C=C/c3ccco3)S2)cc1 | active: 10 µM |
| CCOc1ccccc1CNC(=O)C1CCN(S(=O)(=O)c2cccc3nonc23)CC1 | inactive |
| COc1ccc(C(=O)OCC(=O)NCCCc2ccccc2)cc1[N+](=O)[O-] | inactive |
| O=C(CCCCCn1c(=O)[nH]c2ccccc2c1=O)NCc1cccc(Cl)c1 | inactive |
| CC(OC(=O)C1CCN(S(=O)(=O)c2ccc(C(C)(C)C)cc2)CC1)C(=O)N1CCOCC1 (stereo not drawn) | inactive |
| CC(C(=O)O)c1cccc(C(=O)c2ccccc2)c1 (stereo not drawn) | inactive |
| N#Cc1c(NC(=O)CSc2nc3ccccc3c(=O)n2Cc2ccco2)sc2c1CCCC2 | inconclusive: 14.1 µM [inhibitor, partial curve] |

| SMILES | Potency |
| --- | --- |
| Fc1cccc2sc(Nc3nnc(-c4ccco4)o3)nc12 | inconclusive: 22.4 µM [inhibitor, single point] |
| Cc1c(NS(=O)(=O)c2cccc(C(=O)OCC(=O)N(C)C3CCCCC3)c2)c(=O)n(-c2ccccc2)n1C | inactive |
| O=C(Nc1cccc(Cl)c1)c1ccccc1 | inactive |
| C=CCn1c(N)c(C(=O)NCc2ccco2)sc1=S | inactive |
| CCCCN(C(=O)c1cc(-c2ccncc2)nc2ccccc12)c1c(N)n(CC(C)C)c(=O)[nH]c1=O | inconclusive: 31.6 µM [inhibitor, partial curve, poor fit] |
| O=C1NN(c2ccc(F)cc2)C(=O)/C1=C\C=C\c1ccco1 | inconclusive: 15.8 µM [inhibitor, partial curve, poor fit] |
| O=C(NCc1ccccc1)c1cccc(Br)n1 | inactive |
| Cc1cccc(/C=N/n2c(-c3cc(-c4ccccc4)n[nH]3)n[nH]c2=S)c1 | inactive |
| NC(=S)NN=Cc1nccc2c(N)cccc12 | inconclusive: 10 µM [inhibitor, full curve, poor fit] |
| Cc1cc(C)cc(N(CC(=O)NC2CC3CCC2C3)S(C)(=O)=O)c1 (stereo not drawn) | inactive |
| Cc1ccccc1NC(=O)COC(=O)C1CC2CCCC(C1)C2=O (stereo not drawn) | inconclusive: 28.2 µM [inhibitor, single point] |
| Oc1cccc(/C=N/Nc2cccc3cccnc23)c1 | inconclusive: 79.4 µM [inhibitor, partial curve, poor fit] |
| Cc1ccc(NC(=O)CNC(=O)c2ccc(Br)o2)nc1 | inconclusive: 15.8 µM [inhibitor, full curve, poor fit] |
| O=C(/C=C/c1ccccc1)Nc1scc(-c2ccccc2)c1C(=O)O | inactive |
| Cc1scc(C(=O)N/N=C/c2ccc(OCC(C)C)cc2)c1C | inconclusive: 28.2 µM [inhibitor, partial curve, poor fit] |
| CCc1ccc2[nH]c(=O)c(C(c3nnnn3CCOC)N3CCN(c4ccccc4F)CC3)cc2c1 (stereo not drawn) | inconclusive: 14.1 µM [inhibitor, partial curve, poor fit] |
| O=C(O)c1cc(N=Nc2c(O)[nH]c3ccc([N+](=O)[O-])cc23)ccc1Cl | inconclusive: 39.8 µM [inhibitor, single point] |
| Nc1c2c(=O)[nH]c(O)cc2nn1-c1ccccc1 | active: 50.1 µM |
| CN(C)C(/C=C/Nc1ccc([N+](=O)[O-])cc1)=C(C#N)C#N | inconclusive: 20 µM [inhibitor, partial curve, poor fit] |
| CSCC[C@H](NC(=O)c1cc2c([nH]c3ccccc32)c(-c2ccccc2)n1)C(=O)O | inconclusive: 20 µM [inhibitor, partial curve, poor fit] |
| COc1ccc(C2C(C(=O)OCC3CCCO3)=C(C)NC3=C2C(=O)CC(c2ccco2)C3)cc1O (stereo not drawn) | inconclusive: 28.2 µM [inhibitor, partial curve, poor fit] |
| CC(=O)c1c(C)oc2ccc(N(C(C)=O)S(=O)(=O)c3ccc(Br)cc3)cc12 | inconclusive: 11.2 µM [inhibitor, full curve, poor fit] |
| O=C(O)C1CC(=O)N(c2ccc3c(c2)OCCO3)C1 (stereo not drawn) | inconclusive: 15.8 µM [inhibitor, partial curve, poor fit] |

| SMILES | Potency |
| --- | --- |
| NS(=O)(=O)c1ccc(NC(=O)Nc2ccc(S(N)(=O)=O)cc2)cc1 | inactive |
| COc1ccc(NCc2cc3cc4c(cc3n(CC(=O)Nc3cc(C)ccc3C)c2=O)OCCO4)cc1 | inactive |
| CCOc1cc(/C=C2\C(=N)N3N=C(S(=O)(=O)CC)SC3=NC2=O)ccc1OC(=O)c1ccco1 | inconclusive: 56.2 µM [inhibitor, partial curve, poor fit] |
| Cc1ccc(N(CC(=O)Nc2ccc(Br)cc2)S(=O)(=O)c2cccs2)cc1 | inconclusive: 79.4 µM [inhibitor, partial curve, poor fit] |
| COc1ccccc1-c1cc(C(=O)Nc2cc(C)nn2-c2ccccc2)no1 | inconclusive: 89.1 µM [inhibitor, partial curve, poor fit] |
| Cc1c(C(=O)NCCSCc2ccc(F)cc2)cnn1-c1ccc(Cl)cc1 | inconclusive: 89.1 µM [inhibitor, partial curve, poor fit] |
| Cc1ccc(C(=O)Oc2coc(CSc3nnc(NC(=O)c4cccs4)s3)cc2=O)cc1C | active: 7.94 µM |
| CCCCCCn1c(Br)nc2c1c(=O)n(C)c(=O)n2C | inconclusive: 89.1 µM [inhibitor, partial curve, poor fit] |
| CC(=O)c1ccc(S(=O)(=O)NCC(=O)Nc2nc3ccccc3[nH]2)cc1 | inconclusive: 20 µM [inhibitor, full curve, poor fit] |
| Nc1cc(C(=O)OCC(=O)NCc2ccco2)ccc1Cl | active: 17.8 µM |
| O=C(Cc1ccc(S(=O)(=O)N2CCOCC2)s1)Nc1ccccc1Br | inconclusive: 35.5 µM [inhibitor, full curve] |
| C[N+](C)(CCCCCC[N+](C)(C)CCCN1C(=O)c2cccc3cccc(c23)C1=O)CCCN1C(=O)c2cccc3cccc(c23)C1=O | inconclusive: 39.8 µM [inhibitor, single point] |
| O=C(COC(=O)c1ccc([N+](=O)[O-])s1)c1ccc[nH]1 | active: 20 µM |
| CN1CCN(c2ccccc2NC(=O)c2ccc(-c3ccccc3)cc2)CC1 | inconclusive: 79.4 µM [inhibitor, partial curve, poor fit] |
| c1cc2[nH]snc2c2nc(C3CC3)nc12 | active: 79.4 µM |
| CCCCNS(=O)(=O)c1ccc2nc(SCC(=O)Nc3cccc(F)c3)[nH]c2c1 | inconclusive: 14.1 µM [inhibitor, partial curve, poor fit] |
| C=CCOCCN1C(=O)C2C(c3ccccc3)C=CC(c3ccccc3)C2C1=O (stereo not drawn) | inconclusive: 35.5 µM [inhibitor, partial curve] |
| CCOc1ccc(-c2cnc(NCc3ccc(C(F)(F)F)cc3)n2C)cc1 | inactive |
| O=C(Nc1cc(S(=O)(=O)N2CCCCC2)ccc1Cl)C1COc2ccccc2O1 (stereo not drawn) | inconclusive: 10 µM [inhibitor, partial curve, poor fit] |
| O=C(NC(=S)NNC(=O)c1ccco1)c1ccccc1 | inactive |
| FC(F)(F)c1nnc2ccc(NCn3nnc4ccccc43)nn12 | active: 89.1 µM |
| COc1ccc(Nc2c3c(nc4ccc(NC(=O)/C=C/c5cc(OC)c(OC)c(OC)c5)cc24)CCCC3)cc1OC | inactive |
